# In PubChem BioAssay AID651820 (National Center for Advancing Translational Sciences (NCATS), 2012):
# Out of some 340,000 compounds screened, about 12,000 (3.5%) were called active. The shares of active, inactive and inconclusive entries below differ from those in the screen. The call rests on the fitted dose curve; in most records, active means well fitted inhibition curve with a large enough effect; inconclusive means small, poorly fitted or top-dose-only effect, or another doubt; inactive means no such curve, though single readings can be large or run the other way. No potency is given beside an inconclusive call; the fits are too rough.
# Test: qHTS Assay for Inhibitors of Hepatitis C Virus (HCV)
# Settings: Huh7.5.1 HCVcc-Cre (HCVcc is cell-culture hepatitis C virus) infection, luciferase reporter, 44 h; activity change, negative = inhibition: at 41.8 µM (top of the series)
# Method in brief: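 Whole-lifecycle infectious HCVcc-Cre system; cells 1,000/well, compound then virus (~0.5 moi) added 4 h after plating, 44 h culture. Luciferase read 15 sec following 15 min substrate incubation, room temp.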
# On the % scale 0 is the no-effect control and ±100 the full control effect; potency means the concentration at half of the fitted maximal effect; tags describe the fitted curve by direction and shape.
SMILES,Potency,"activity change, negative = inhibition"
CCCCNC(=S)N/N=C/C1=CCC2CC1C2(C)C (configuration not stated),"inconclusive [inhibitor, single point]",
O=C(CSc1nc2ccccc2[nH]1)Nc1ccc(F)c(F)c1,,inactive: -21.9%
COc1ccccc1/C=C/C=N\N1CCN(Cc2ccccc2Cl)CC1,"inconclusive [inhibitor, single point]",
COc1ccc(NC(=O)c2cc(-c3ccc(C)cc3O)n[nH]2)c(OC)c1,"inconclusive [inhibitor, full curve, poor fit]",
O=S(=O)(Cc1ccccc1)C(CCCc1ccccc1)S(=O)(=O)Cc1ccccc1,,inactive: -21.2%
O=C(CN1CCCCC1)Nc1nc(-c2ccc(Cl)cc2)cs1,active: 10 µM,
C[C@H](CO)N1C[C@H](C)[C@H](CN(C)Cc2ccccc2)Oc2c(NC(=O)Nc3ccc(F)cc3)cccc2C1=O,"inconclusive [inhibitor, single point]",
NC(=O)CC(NC(=O)c1ccccc1)c1ccc(N2CCC(Br)CC2)c([N+](=O)[O-])c1 (configuration not stated),"inconclusive [inhibitor, partial curve]",
Cc1ccc(OCCSc2ncccn2)c(C)c1,,inactive: -11.1%
O=[N+]([O-])c1cccc2ccc(N3CCOCC3)nc12,"inconclusive [inhibitor, partial curve]",
C=CCCC(=O)Nc1nc(C)c(-c2csc(Nc3ccc(Cl)cc3Cl)n2)s1,"inconclusive [inhibitor, single point]",
NNC(=O)c1ccc2nc(-c3ccc(Br)cc3)cn2c1,,inactive: -7.79%
CN(c1ccccc1)S(=O)(=O)c1ccc(Cl)c(C(=O)NCC(c2ccco2)N2CCCC2)c1 (configuration not stated),"inconclusive [inhibitor, single point]",
Cc1ccc([N+](=O)[O-])cc1NC(=O)Nc1cccc(F)c1,"inconclusive [inhibitor, single point]",
O=C(N/N=C/c1cccnc1)c1sc2ccccc2c1Cl,,inactive: -4.2%
CCOc1ccc(CCNC(=O)C2CCCN(c3ncnc4c3nc3n4CCCCC3)C2)cc1 (configuration not stated),"inconclusive [inhibitor, partial curve]",
Nc1nc(NCc2ccco2)nc(N2CCCCC2)c1[N+](=O)[O-],,inactive: -4.82%
Cc1cccc2sc(NC(=O)C3CCCO3)nc12 (configuration not stated),"inconclusive [inhibitor, single point]",
CN(C)c1ccc(NC(=O)COC(=O)Cn2nnc3ccccc32)cc1,"inconclusive [inhibitor, full curve]",
Cc1ccc(C(=O)Nc2ccccc2N2CCN(C(=O)C(C)C)CC2)cc1C,"inconclusive [inhibitor, single point]",
Cc1ccc(OCCNC(=O)CCNS(=O)(=O)c2ccc3ccccc3c2)cc1,"inconclusive [inhibitor, single point]",

SMILES,Potency,"activity change, negative = inhibition"
O=C(N/C(=C/c1ccc(F)cc1)C(=O)N1CCCC1)c1ccccc1,,inactive: -5.16%
CCCc1nc2oc3c(NCCN(C)C)ncnc3c2c2c1CCCC2,"inconclusive [inhibitor, full curve]",
CCCC[C@@H]1CNCCN1CC1(c2ccccc2)CC1,"inconclusive [inhibitor, partial curve]",
CC1=Nc2ccccc2N=C(NC(=O)CSC(=S)N2CCN(C)CC2)C1c1ccccc1 (configuration not stated),,inactive: -8.67%
CCCCNC(=S)Nc1ccc(-c2nc3ccc(C)cc3s2)cc1,"inconclusive [inhibitor, partial curve]",
CCN(CC)c1ccc(/C=N/NC(=O)c2cccc(S(=O)(=O)Nc3ccccc3OC)c2)cc1,active: 11.2 µM,
COc1cc(NC(=O)CN2C(=O)C(C)N(c3ccc(C)cc3)C2=O)cc(OC)c1 (configuration not stated),"inconclusive [inhibitor, single point]",
COc1ccc(CCNC(=O)C2CCN(S(=O)(=O)c3cccs3)CC2)cc1OC,,inactive: 8.49%
CCOc1ccc2ccccc2c1CNCCc1ccc(S(N)(=O)=O)cc1,,inactive: 3.84%
CN(N)c1nc(-c2ccccc2)cc(-c2ccccc2)n1,"inconclusive [inhibitor, single point]",
Oc1ccc(-c2[nH]nc(-c3ccccc3)c2-c2nc3ccccc3[nH]2)cc1,"inconclusive [inhibitor, partial curve]",
O=C(c1ccc(OCCN2CCCCC2)cc1)c1c(-c2ccc(O)cc2)sc2cc(O)ccc12,"inconclusive [inhibitor, partial curve]",
COc1ccccc1OP(=O)(Nc1ccc(Br)cc1)Oc1ccccc1OC,"inconclusive [inhibitor, single point]",
Cc1ccc(/C=C/C(=O)c2cc(Br)ccc2OC(=O)c2ccco2)cc1,"inconclusive [inhibitor, single point]",
COc1ccc(OC)c(NC(=O)c2cnc(Nc3ccccc3OC)c3ccccc23)c1,"inconclusive [inhibitor, partial curve]",
CCN1C(=NCc2cc(OC)c(OC)c(OC)c2)N[C@@H](c2cccc(C(F)(F)F)c2)C(C(=O)OC)=C1C,"inconclusive [inhibitor, single point]",
Nc1c(N(Cc2ccccc2)C(=O)COc2cccc(Cl)c2)c(=O)[nH]c(=O)n1Cc1ccccc1,"inconclusive [inhibitor, full curve]",
O=C1c2ccccc2-c2n[nH]c3cccc1c23,"inconclusive [inhibitor, partial curve]",
COc1ccc(S(=O)(=O)N2CCOC2CNC(=O)C(=O)NCc2ccc3c(c2)OCO3)cc1 (configuration not stated),"inconclusive [inhibitor, partial curve]",
Cc1ccc(C)c(C(=O)OCC(=O)Nc2cccc(S(=O)(=O)NC3=NCCCCC3)c2)c1,"inconclusive [inhibitor, partial curve, poor fit]",
C=CCC[C@@H](Cc1ccc(F)cc1)C(=O)OC[C@H](Cc1c[nH]c2ccccc12)NC(=O)[C@@H](CC=C)CC(=O)N(CCO)Cc1ccccc1,"inconclusive [inhibitor, single point]",
